Source: the supplement of paper PMC4604168 (melanoma cell lines)
This is one part of the list. Repeats are few or missing, and single values can be far off.

Tests used:
Assay in all cases: cell count relative to DMSO control; melanoma cells; higher = more viable cells
Details in all cases: library dose: low library concentration; 72 h
[1] = tested on: MZ2-MEL
[2] = tested on: MeWo
[3] = tested on: RPMI7951
[4] = tested on: RVH-421
[5] = tested on: SkMel28
[6] = tested on: SkMel2
[7] = tested on: SkMel30
[8] = tested on: SkMel5
[9] = tested on: UACC257
[10] = tested on: UACC62
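Further: cell number obtained by counting DAPI-stained nuclei in high-throughput microscope images with image analysis software, screen run in 1,536-well plates.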

SMILES	cell count [1] [%]	cell count [2] [%]	cell count [3] [%]	cell count [4] [%]	cell count [5] [%]	cell count [6] [%]	cell count [7] [%]	cell count [8] [%]	cell count [9] [%]	cell count [10] [%]
C[C@]1(O)C[C@@H](c2nc(-c3ccc4ccc(-c5ccccc5)nc4c3)c3c(N)nccn32)C1 + COc1cc(Nc2ncc(F)c(Nc3ccc4c(n3)NC(=O)C(C)(C)O4)n2)cc(OC)c1OC [Tamatinib] (first compound 0.4 µM, partner dose 0.4 µM)	79.4	81.1	89.7	90.8	71.3	72.3	71.1	69.4	53.9	72.7
COc1cc([C@@H]2c3cc4c(cc3[C@@H](O[C@@H]3O[C@@H]5CO[C@@H](C)O[C@H]5[C@H](O)[C@H]3O)[C@H]3COC(=O)[C@H]23)OCO4)cc(OC)c1O [etoposide] + O=C(Nc1cccc(Cl)c1)Nc1ncc(CCNc2ncnc3ccsc23)s1 [SNS314] (first compound 0.02 µM, partner dose 0.0008 µM)	95.2	104	97.2	73.4	70.2	98.2	95.7	94.6	59.9	76.1
CCN(CC)CCNC(=O)c1c(C)[nH]c(/C=C2\C(=O)Nc3ccc(F)cc32)c1C [sunitinib] + CC(C)(C)c1cnc(CSc2cnc(NC(=O)C3CCNCC3)s2)o1 [SNS-032] (first compound 0.4 µM, partner dose 0.01 µM)	104	74.7	108	102	85.3	99.4	72.8	101	58.3	61.3
Cn1cnc2c(F)c(Nc3ccc(Br)cc3Cl)c(C(=O)NOCCO)cc21 [selumetinib] + O=C(Nc1ccccc1)c1cc([N+](=O)[O-])ccc1Cl [GW9662] (first compound 0.015 µM, partner dose 2 µM)	87.8	81.6	88.3	72.5	104	69.3	63	100	73.5	84.5
CCN(CC)CCNC(=O)c1c(C)[nH]c(/C=C2\C(=O)Nc3ccc(F)cc32)c1C [sunitinib] + C=CCn1c(=O)c2cnc(Nc3ccc(N4CCN(C)CC4)cc3)nc2n1-c1cccc(C(C)(C)O)n1 [MK1775] (first compound 0.4 µM, partner dose 0.02 µM)	101	84.7	114	120	82.4	94.6	59.1	96	75.3	67.1
C[C@]1(O)C[C@@H](c2nc(-c3ccc4ccc(-c5ccccc5)nc4c3)c3c(N)nccn32)C1 + CCCCCCCCCCCC1=C(O)C(=O)C=C(O)C1=O [Embelin] (first compound 0.4 µM, partner dose 1.2 µM)	96.9	88.6	102	106	81.9	85.9	93.7	84.4	93	96.9
COc1cc([C@@H]2c3cc4c(cc3[C@@H](O[C@@H]3O[C@@H]5CO[C@@H](C)O[C@H]5[C@H](O)[C@H]3O)[C@H]3COC(=O)[C@H]23)OCO4)cc(OC)c1O [etoposide] + CN(C)S(=O)(=O)c1ccc2c(c1)/C(=C/c1cc3c([nH]1)CCCC3)C(=O)N2 [SU6656] (first compound 0.02 µM, partner dose 0.4 µM)	90.5	94.6	104	75	91.4	93.2	94.7	99.2	81.2	80.5
CCN(CC)CCNC(=O)c1c(C)[nH]c(/C=C2\C(=O)Nc3ccc(F)cc32)c1C [sunitinib] + CO[C@@H]1[C@H](N(C)C(=O)c2ccccc2)C[C@H]2O[C@]1(C)n1c3ccccc3c3c4c(c5c6ccccc6n2c5c31)C(=O)NC4 [Midostaurin] (first compound 0.4 µM, partner dose 0.08 µM)	104	83.5	121	105	89.2	110	82.8	103	76.7	89.7
Cn1cnc2c(F)c(Nc3ccc(Br)cc3Cl)c(C(=O)NOCCO)cc21 [selumetinib] + Cc1ccc(NC(=O)c2cccc(N(C)C)c2)cc1NC(=O)c1ccc(O)cc1 [ZM336372] (first compound 0.015 µM, partner dose 2 µM)	125	98.2	124	65.6	75.9	85.4	110	109	72.4	85.1
C[C@]1(O)C[C@@H](c2nc(-c3ccc4ccc(-c5ccccc5)nc4c3)c3c(N)nccn32)C1 + O=C(O)c1ccc(-c2c[nH]c3ncc(-c4ccccc4)cc23)cc1C1CCCC1 [GSK650394] (first compound 0.4 µM, partner dose 0.16 µM)	89.2	92.6	113	114	108	86.3	97.5	79.5	88.7	83.7
Cn1cnc2c(F)c(Nc3ccc(Br)cc3Cl)c(C(=O)NOCCO)cc21 [selumetinib] + Cn1cncc1[C@@](N)(c1ccc(Cl)cc1)c1ccc2c(c1)c(-c1cccc(Cl)c1)cc(=O)n2C [tipifarnib] (first compound 0.015 µM, partner dose 0.01 µM)	79.9	89.1	125	85	71.5	68	60.8	120	59.8	65.9
C[C@]1(O)C[C@@H](c2nc(-c3ccc4ccc(-c5ccccc5)nc4c3)c3c(N)nccn32)C1 + CC(C)(C)c1cnc(CSc2cnc(NC(=O)C3CCNCC3)s2)o1 [SNS-032] (first compound 0.4 µM, partner dose 0.01 µM)	88.8	95.2	92	98.2	102	77.6	91.5	90.5	92.5	77.5
COc1cc([C@@H]2c3cc4c(cc3[C@@H](O[C@@H]3O[C@@H]5CO[C@@H](C)O[C@H]5[C@H](O)[C@H]3O)[C@H]3COC(=O)[C@H]23)OCO4)cc(OC)c1O [etoposide] + CC(C)CCN1c2nc(Nc3cc(F)c(O)c(F)c3)ncc2N(C)C(=O)C1C [BID1870] (first compound 0.02 µM, partner dose 0.2 µM)	95.8	97.7	102	109	86.4	88	80	86.8	79.3	76.2
COc1cc([C@@H]2c3cc4c(cc3[C@@H](O[C@@H]3O[C@@H]5CO[C@@H](C)O[C@H]5[C@H](O)[C@H]3O)[C@H]3COC(=O)[C@H]23)OCO4)cc(OC)c1O [etoposide] + Oc1cc(-c2nc(-c3ccccc3)[nH]c2-c2ccncc2)ccc1Cl [L779450] (first compound 0.02 µM, partner dose 0.2 µM)	73.6	91.5	84.8	75	80	83	97.9	114	94.5	66.8
CCN(CC)CCNC(=O)c1c(C)[nH]c(/C=C2\C(=O)Nc3ccc(F)cc32)c1C [sunitinib] + O=S(=O)(c1ccccc1)N(CC(F)(F)F)c1ccc(C(O)(C(F)(F)F)C(F)(F)F)cc1 [T0901317] (first compound 0.4 µM, partner dose 1.4 µM)	100	83	98	107	88	101	63.9	85.3	110	80.7
CCN(CC)CCNC(=O)c1c(C)[nH]c(/C=C2\C(=O)Nc3ccc(F)cc32)c1C [sunitinib] + Cc1ccc(NC(=O)c2cccc(N(C)C)c2)cc1NC(=O)c1ccc(O)cc1 [ZM336372] (first compound 0.4 µM, partner dose 2 µM)	85	96.1	107	130	103	104	77.4	110	111	91.6
CCN(CC)CCNC(=O)c1c(C)[nH]c(/C=C2\C(=O)Nc3ccc(F)cc32)c1C [sunitinib] + Cn1cc(/C=C2\C(=O)Nc3cccnc32)c2ccccc21 [GW441756] (first compound 0.4 µM, partner dose 0.4 µM)	105	75.4	95.6	117	85.7	111	73.7	85.5	85.7	93.5
COc1cc([C@@H]2c3cc4c(cc3[C@@H](O[C@@H]3O[C@@H]5CO[C@@H](C)O[C@H]5[C@H](O)[C@H]3O)[C@H]3COC(=O)[C@H]23)OCO4)cc(OC)c1O [etoposide] + CCN(CC)CCCCNc1ncc2cc(-c3cc(OC)cc(OC)c3)c(NC(=O)NC(C)(C)C)nc2n1 [PD173074] (first compound 0.02 µM, partner dose 0.1 µM)	107	90.9	96.4	145	95.2	100	95.3	94.9	74.1	92.5
C[C@]1(O)C[C@@H](c2nc(-c3ccc4ccc(-c5ccccc5)nc4c3)c3c(N)nccn32)C1 + Oc1nc(-c2ccc(C(F)(F)F)cc2)nc2c1CSCC2 [XAV939] (first compound 0.4 µM, partner dose 2 µM)	91.8	81.1	95.2	106	81.6	97.3	96.5	72.9	92.3	84.3
CCN(CC)CCNC(=O)c1c(C)[nH]c(/C=C2\C(=O)Nc3ccc(F)cc32)c1C [sunitinib] + O=C(Nc1cccc(Cl)c1)Nc1ncc(CCNc2ncnc3ccsc23)s1 [SNS314] (first compound 0.4 µM, partner dose 0.0008 µM)	106	83.3	98	117	77.9	110	78.8	108	71	73.6
Cn1cnc2c(F)c(Nc3ccc(Br)cc3Cl)c(C(=O)NOCCO)cc21 [selumetinib] + COc1cc(Nc2ncc(F)c(Nc3ccc4c(n3)NC(=O)C(C)(C)O4)n2)cc(OC)c1OC [Tamatinib] (first compound 0.015 µM, partner dose 0.4 µM)	71.3	73.6	93.4	90.3	80.4	71.7	42.1	96.8	53.4	69.8
